Test results as given in PubChem BioAssay AID1963576 (National Center for Advancing Translational Sciences (NCATS), 2024).
Hit rate of the full screen: of about 46,000 compounds, about 60 (0.1%) were called active. Inconclusive results (about 3%) are left out. The call rests on the fitted dose curve; in most records, active means well fitted inhibition curve with a large enough effect; inconclusive means small, poorly fitted or top-dose-only effect; inactive means no such curve, though single readings can be large or run the other way. Some of the results follow.

assay: Primary qHTS assay for Inhibitors of ovarian cancer metastasis using an organotypic tumor microenvironment (TME) model.; further: nearly all actives have a fitted effect of over 65% in size;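 on activity change, negative = inhibition: plate controls were DMSO wells for no effect and tomatine positive control wells for full effect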; conditions: SKOV3ip1-GFP adhesion/invasion on 3D omental model, fluorescence; series mostly up to 45.8 µM; activity change, negative = inhibition: at the top concentration
Outline: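 Adhesion/invasion was scored as fixed GFP-labeled SKOV3ip1 cell counts (488/509 nm), normalized to DMSO and tomatine controls. Cancer cells in serum-free medium, with four compound doses (0.36-46 umol/L), sat 2 hr at RT then 16 hr at 37 C on a 48 hr fibroblast/mesothelial/ECM culture.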

outcome, inactive:
CCOC(=O)N1CCN(CCC(=O)Nc2cc(C)ccc2C)CC1, CCOc1ccc(C(=O)Nc2ccc3nc(SCC(=O)N4CCCC4)sc3c2)cc1, CCn1cc2nc(SCC(=O)Nc3cccc(Cl)c3C)n(Cc3ccc(Cl)cc3)c(=O)c2n1, COc1ccc(Nc2ncc(C(=O)N3CCN(c4ccccc4OC)CC3)c3ccccc23)cc1, CCOc1ccc(NC(=O)Nc2c[nH]c(=O)[nH]c2=O)cc1, CCOc1ccccc1CNC(=O)c1ccc2c(c1)nc1n2CCC(C)C1 (stereo not given), CC(=O)c1ccc(N2C(=O)Nc3ccccc3S2(=O)=O)cc1, CCC(=O)Nc1cccc(OCc2cc(=O)n3cc(C)ccc3n2)c1, COC(=O)c1ccc(Oc2nc3c(c(=O)n(C)c(=O)n3C)n2Cc2ccc(Cl)c(Cl)c2)cc1, Cc1cc(NCc2ccc(Cl)cc2)n2cnnc2n1, COc1ccc(S(=O)(=O)N(CC(=O)Nc2ccc3c(c2)OCO3)c2ccc(C)cc2)cc1, COc1ccc(NC(=O)c2oc3ccccc3c2NC(=O)C23CC4CC(CC(C4)C2)C3)cc1, O=C(Cn1cc(S(=O)(=O)c2ccccc2)c(=O)c2cc3c(cc21)OCO3)Nc1ccccc1, Cn1cc(S(=O)(=O)N2CCCCC2)cc1C(=O)Nc1ccc(OC(F)(F)F)cc1, CCn1cc2nc(SCc3cccc(C)c3)n(CCc3ccccc3)c(=O)c2n1, COc1ccc(CCNC(=O)CCn2c(=O)c3ccccc3n(CC(=O)Nc3cc(Cl)ccc3C)c2=O)cc1OC, CCOC(=O)C1CCCN(C(=O)c2ccc3c(c2)N(Cc2ccccc2F)C(=O)c2ccccc2S3=O)C1 (stereo not given), CCCN(C(=O)Cn1ncc2c([nH]c3ccccc32)c1=O)c1ccc(F)cc1, COc1cccc(-c2nc(SCC(=O)NCC3CCCO3)c(-c3ccc(Cl)cc3)[nH]2)c1 (stereo not given), Cc1nn2c(-c3ccco3)ccnc2c1-c1ccc(Cl)cc1, CCC(=O)N1CCCc2cc(S(=O)(=O)N3CCC(C(=O)Nc4cccc(Cl)c4)CC3)ccc21, CCc1ccc(NC(=O)CC2C(=O)N(c3ccc(OC)cc3)C(=O)N2Cc2cccs2)cc1 (stereo not given), O=C(Cn1c(=O)n(-c2ccccc2)c(=O)c2ccc(C(=O)NCc3ccc4c(c3)OCO4)cc21)Nc1ccc(F)c(Cl)c1, Cc1ccc(NC(=O)Nc2cccs2)c(C)c1, CCOc1ccc(CCNC(=O)c2ccc(-c3nc(CSc4ccccc4)c(C)o3)cc2)cc1, Cc1cccc(CC(=O)NCCc2sc3nc(-c4ccc(F)cc4)nn3c2C)c1, CN1CCN(C(=O)c2ccc3c(c2)N(Cc2ccc(Cl)cc2)C(=O)c2ccccc2S3(=O)=O)CC1

Activity change, negative = inhibition, inactive:
CC(C)c1ccc(NC(=O)CN(C)S(=O)(=O)c2ccc3c(c2)n(C)c(=O)c(=O)n3C)cc1 -12.1%, CCc1ccc(CNC(=O)c2cnc3sc(N4CCCCCC4)nn3c2=O)cc1 -23.2%, CCC1CCCCN1C(=O)CSc1nc(-c2ccc(OC)cc2)cc(C(F)(F)F)n1 (stereo not given) 9.95%, Cc1ccccc1Cn1c(=O)n(CCCCCC(=O)NCc2ccc3c(c2)OCO3)c(=O)c2sccc21 -5.37%, O=C(Cn1ncc2c3ccccc3n(Cc3cccc(Cl)c3)c2c1=O)NCCC1=CCCCC1 8.16%, CCOC(=O)c1ccc(NC(=O)CN2C(=O)c3cccnc3Sc3ccccc32)cc1 4.7%, CCOc1ccc(C(=O)NCCc2sc(-c3ccc(F)cc3)nc2C)cc1 -0.898%, Cn1c(SCc2ccccc2Cl)nc(=O)c2c1NC(=O)CC2c1cc(F)ccc1F (stereo not given) 5.45%, COc1ccc(NC(=O)CSc2ncc3c(n2)-c2ccccc2N(C)S3(=O)=O)cc1Cl -14.5%, CCN(CC)c1ccc(CNS(=O)(=O)c2cc3c(cc2C)NC(=O)CO3)cc1 -2.04%, CCOC(=O)c1ccccc1NC(=O)Cn1c(=O)n(-c2ccc(CC)cc2)c(=O)c2c(C)c(C(=O)N(C)C)sc21 -8.72%, Nc1ncc(S(=O)(=O)Nc2ccc(OC(F)(F)F)cc2)cn1 -4.05%, Cc1ccc(CSc2cn(CCNC(=O)c3cccs3)c3ccccc23)cc1 7.81%, O=C(Nc1ccc(F)c(Cl)c1)C1CCN(S(=O)(=O)c2ccc3c(c2)CCCN3C(=O)C2CCC2)CC1 0.713%, Cc1ccc(N2CC(NC(=O)c3ccccc3Br)CC2=O)cc1 (stereo not given) -0.492%, CC(C)Sc1nc2sc3c(c2c(=O)n1-c1ccccc1)CCCC3 3.66%, CC1=C(C(=O)Nc2ccccc2)C(c2ccccn2)n2nc(SCc3ccccc3Cl)nc2N1 (stereo not given) 13.2%, CN(C)CC(C)(C)CNc1nn2c(-c3ccccc3)nnc2cc1C1CCC1 -16.1%, Cc1ccccc1NC(=O)Cn1cc(S(=O)(=O)N2CCCC2)c(S(=O)(=O)N2CCCC2)c1 -15.8%, CCOc1ccc(NC(=O)c2nnn(-c3ccc(F)c(Cl)c3)c2C)cc1 7.82%, Cc1cccc(-c2noc(-c3ccc(NCc4cccnc4)c([N+](=O)[O-])c3)n2)c1 -4.89%, CN(Cc1ccco1)S(=O)(=O)c1nnc(NC(=O)c2ccccc2)s1 12.2%, O=C(Nc1ccc(F)cc1)c1ccc2c(c1)NC(=O)c1ccccc1S2 1.23%, CCc1cccc(NC(=O)Cn2ccn3nc(-c4ccc(OC)c(OC)c4)cc3c2=O)c1 2.77%, Nc1nonc1-c1nc2ccccc2n1CC(=O)Nc1cccc(Cl)c1Cl -3.43%, CCc1ccc(NS(=O)(=O)c2c(-c3ccccc3)csc2C(=O)OC)cc1 -2.19%, O=C(Nc1nnc(S(=O)(=O)N2CCCCCC2)s1)c1ccccc1 -0.0862%, COc1ccccc1N(CC(=O)Nc1cc(C)cc(C)c1)S(C)(=O)=O -5.3%, O=C(NCc1ccccc1Cl)c1ccc(NC(=O)N2CCSc3ccccc32)cc1 6.48%, Cc1ccc(OCc2cc(=O)n3c4c(sc3n2)CCCC4)cc1C -3.69%, COc1cc(OC)cc(C(=O)Nc2ccc3c(c2)n(C)c(=O)c(=O)n3C)c1 -5.23%, COc1ccc(OC)c(NC(=O)c2c(NCc3ccc(N(C)C)cc3)sc3c2CCCC3)c1 -19.6%, Cc1nc2nc(SCC(=O)NC3CCC(C)CC3)nn2c(C)c1Cc1ccccc1Cl (stereo not given) -7.9%, Cc1noc(-c2ccc(-c3noc(-c4cccc(Cl)c4)n3)cc2)n1 1.08%, Cc1ccc(S(=O)(=O)C(CNC(=O)c2ccc(C(F)(F)F)cc2)c2ccco2)cc1 (stereo not given) -6.75%, CCc1ccc2occ(CC(=O)Nc3sc4c(c3C(=O)NCCOC)CCCC4)c2c1 5.97%, O=C(NCCCc1ccccc1)c1nn(-c2ccccc2)nc1CO -0.122%, Cc1ccc(S(=O)(=O)n2nc(-c3ccco3)nc2NCc2ccc(N(C)C)cc2)cc1 -10.8%, CCc1ccc2oc(-c3ccc(C)c(NC(=O)c4ccc(C#N)cc4F)c3)nc2c1 -1.6%, CCOC(=O)c1ccc(NC(=O)CCC(=O)N2CCSc3ccccc32)cc1 -5.09%, Cc1nc2c(-c3ccccc3)c(C)nn2c(C)c1CCC(=O)NCc1ccccc1 5.53%, COC(=O)C1C2CC3c4[nH]c5cc(OC)ccc5c4CCN3CC2CC(OC(=O)c2cc(OC)c(OC)c(OC)c2)C1OC (stereo not given) 6.43%, CC(=O)c1cccc(NC(=O)CCCSc2nc(-c3ccco3)cc(C(F)(F)F)n2)c1 -14.3%, COc1ccc2c(c1)c(=O)c(S(=O)(=O)c1ccccc1)cn2CC(=O)Nc1ccc2c(c1)OCO2 8.17%, CN(C)CCNC(=O)C(=O)NCC(c1cccnc1)N1CCN(c2ccccc2)CC1 (stereo not given) 1.69%, Cc1ccc(NC(=O)c2ccc(CNS(=O)(=O)c3ccc4c(c3)C(C)(C)C(=O)N4C)cc2)cc1 -4.19%, CCOC(=O)C(C)(C)Oc1ccc(Cl)cc1 -11.9%, COc1ccc(NC(=O)CN2C(=O)C(c3ccc(C)cc3)=NC23CCCCCC3)cc1Cl 7.86%, O=C(CSc1nc2ccsc2c(=O)n1Cc1ccccc1F)NCc1ccccc1Cl -0.76%, CC(=O)N1CCc2cc(S(=O)(=O)NC(Cc3ccccc3)C(=O)Nc3ccc(C)cc3C)ccc21 (stereo not given) -7.14%, COc1ccc(N2CCN(C(=O)Cn3c(-c4cccs4)cc4ccccc43)CC2)cc1 -14.9%, Cc1ccc(C)c(Cn2c(=O)n(-c3ccc(F)cc3)c(=O)c3sc4ccccc4c32)c1 1.84%, Clc1cccc(-n2ncc3c(Nc4ccc5c(c4)OCCO5)ncnc32)c1 9.3%, O=c1cc2nc(-c3ccccc3)nc(SCCOc3ccc(Cl)cc3)n2[nH]1 1.06%, COc1ccc(C(=O)Nc2ccc3oc(-c4cc(Cl)ccc4Cl)nc3c2)cc1Br 18.9%, CCOC(=O)c1cnc2c(C)cc(C)cc2c1Nc1ccccc1OCC 3.45%, O=C(Nc1cccc(Cl)c1Cl)c1cc(S(=O)(=O)N2CCCc3ccccc32)ccc1F 14.6%, Cc1ccc(C(=O)Nc2ccc3oc(-c4cc(Br)ccc4Cl)nc3c2)cc1 -6.04%, CCOC(=O)Cn1c(-c2cccs2)cc2cc(Cl)ccc21 -4.26%, COc1ccc(CNC(=O)CSc2ncc3c(n2)-c2cc(Cl)ccc2N(C)S3(=O)=O)cc1 8.55%, COC(=O)c1c(NC(=O)/C=C/c2ccc(OC)cc2)sc2c1CCC2 42.8%, COc1ccc(CCNC(=O)c2ccc3c(c2)N(Cc2cccc(Cl)c2)C(=O)c2ccccc2S3=O)cc1OC (stereo not given) -8.45%, CN(CCCNC(=O)c1cc2c(=O)n(C)c3ccccc3c2s1)Cc1ccccc1 -0.0841%, CCOC(=O)c1cc(OC(=O)c2ccccc2OC)n(-c2ccccc2)n1 -0.146%, COc1ccc(N(C(=O)c2cccc(C)c2)S(=O)(=O)c2ccc3c(c2)n(C)c(=O)n3C)cc1 -1.51%, CCN1C(=O)c2ccccc2Sc2ccc(NC(=O)c3cccc(C)c3)cc21 -3.74%, CCc1ccc(N(CC)C(=O)c2sc3nc4n(c(=O)c3c2C)CCCC4)cc1 19.7%, COc1ccc(OCC(=O)N(Cc2ccc(C)o2)C2CCS(=O)(=O)C2)cc1 (stereo not given) -3.27%
